Source: PubChem BioAssay AID686971 (National Center for Advancing Translational Sciences (NCATS), 2013)
Among all 360,000 compounds or so, about 7,500 (2.1%) were called active. Inconclusive means that the source gave no clear call. Such entries were picked first, then a sample of the others. Calls come from the whole dose curve; as a rule, active = well fitted cell-killing curve with a large enough effect; inconclusive = small, poorly fitted or top-dose-only effect, or effect the other way, or another doubt; inactive = no such curve, though single readings can be large or run the other way. Potencies of inconclusive entries are left out as doubtful fits.

assay: qHTS for induction of synthetic lethality in tumor cells producing 2HG: qHTS for the HT-1080-IDH1KD cell line; settings: HT-1080 IDH1 knockdown viability, ATP luminescence, 48 h; series mostly up to 46.1 µM
Summary of the method: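 Assay cells: HT-1080 with IDH1 knockdown, 750 per well, RPMI/5% FBS. Exposure: 48 h at 37 °C following 2 h pre-incubation. Read: CellTiter-Glo luminescence; fitted concentration-response, curve class assigned.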
Potency is the fitted concentration of half-maximal effect; tags give direction and shape of the fitted curve.

Compound	Potency
COc1ccc2c(c1)OC[C@H]1[C@H]2N2C(=O)c3ccc(C)cc3NC(=O)[C@@]2(C)[C@H]1c1ccccc1	inconclusive [cytotoxic, partial curve]
O=C(C[C@H]1C[C@H]2c3cc(NC(=O)CC4CC4)ccc3O[C@H]2[C@H](CO)O1)NCc1ccccc1F	inconclusive [cytotoxic, single point]
Cc1ccc(NC(=O)CN2CCC(Cc3ccccc3)CC2)cc1S(=O)(=O)N(C)C	inconclusive [cytotoxic, single point]
COc1ccc(NC(=O)C2Cc3c(-c4ccc(Cl)cc4)ccnc3O2)cc1 (centres undefined)	inconclusive [cytotoxic, single point]
CC(=O)Oc1ccc(C(=O)NC(C)CCc2ccccc2)cc1 (centres undefined)	inactive
CCCc1ccc(C(O)c2ncc(-c3cccc(F)c3)[nH]2)cc1 (centres undefined)	inconclusive [cytotoxic, single point]
O=C(COc1ccc([N+](=O)[O-])cc1)Nc1nc(-c2ccccn2)cs1	inconclusive [cytotoxic, partial curve]
CCN1CCCC1CNC(=O)c1ccc(Sc2ccc(F)cc2)c([N+](=O)[O-])c1 (centres undefined)	inconclusive [cytotoxic, single point]
O=C(C1CCCN(S(=O)(=O)c2ccccc2[N+](=O)[O-])C1)N1CCN(c2ccccc2)CC1 (centres undefined)	inactive
CC(=O)c1cccc(NC(=O)c2nc(-c3ccccc3)oc2C)c1	inactive
Cc1csc(NC(=O)c2cc([N+](=O)[O-])cc([N+](=O)[O-])c2)n1	inactive
CCCCOC(=O)c1ccc(NC(=O)CSC2=Nc3ccccc3C3CC=NN23)cc1 (centres undefined)	inactive
NC(=O)c1cccc(-c2ccnc3c2CC(C(=O)Nc2cccc(C(F)(F)F)c2)O3)c1 (centres undefined)	inconclusive [cytotoxic, single point]
Cc1c(=O)n(OCc2ccccc2F)c2ccccc2[n+]1[O-]	inactive
Cc1cc(C(=O)NC(=S)Nc2ccccc2N2CCCC2)ccc1[N+](=O)[O-]	inactive
CN(C(=O)c1cccc(NC(=O)Cc2cccc([N+](=O)[O-])c2)c1)C1CCC1	inactive
NC(=S)NN=Cc1cc(-c2cccc(N)c2)ccn1	inconclusive [cytotoxic, partial curve]
Cc1ccc(C)n1-c1ccc(N2CCOCC2)nc1	inconclusive [cytotoxic, single point]
COc1cccc(/C=N/NC(=O)c2ccncc2)c1OC(=O)c1ccc(Br)cc1	inconclusive [cytotoxic, partial curve]
COc1ccc(-c2ccc(C)cc2)cc1[C@H]1[C@@H]2C=CCC[C@@]2(C)C(=O)N1Cc1ccccc1	inconclusive [cytotoxic, single point]
Cc1cccnc1C(NC(=O)C1CCN(Cc2ccc(Cl)c(Cl)c2)CC1)c1ccc(Cl)cc1 (centres undefined)	inconclusive [cytotoxic, single point]
COc1ccc(-c2[nH]ncc2CN2CCCC(C(=O)c3cccc(OC)c3)C2)cc1 (centres undefined)	inactive

Compound	Potency
CN(Cc1ccccc1)CC(O)COc1ccc(CNCCc2ccncc2)cc1 (centres undefined)	inconclusive [cytotoxic, partial curve]
Cc1ccc(-c2cc3cccc[n+]3cc2-c2ccc(C)cc2)cc1	inconclusive [cytotoxic, partial curve]
CCCc1ccc(OCc2nc(-c3ccc(NC(=O)c4ccco4)cc3)no2)cc1	inconclusive [cytotoxic, single point]
O=c1c2ccccc2nc(/C=C/c2cccc([N+](=O)[O-])c2)n1CCCO	inconclusive [cytotoxic, single point]
Cn1/c(=N/N=C/c2ccccn2)sc2ccccc21	inactive
Cc1ccc(C(CCNC(C)c2cccs2)c2ccco2)cc1 (centres undefined)	inconclusive [cytotoxic, single point]
COc1ccc2[nH]c3c(=O)n4c(nc3c2c1)SCCC4	inconclusive [cytotoxic, single point]
Cc1ccc(-n2[nH]c(C)c(/C=N/c3cccc(C)n3)c2=O)cc1	inactive
CCCCC(O)(c1ccc(F)cc1)C(CN1CCOCC1)c1ccc(Cl)cc1 (centres undefined)	inconclusive [cytotoxic, single point]
Cc1cc(C(=O)OCCN2C(=O)c3ccccc3C2=O)c2ccccc2n1	inactive
CCCCCN1N=C(C)CC1=O	inactive
O=C(Oc1ccc(C(=S)N2CCOCC2)cc1)c1cccc(Cl)c1	inactive
O=C(O)CCC(=O)NNC(=O)COc1ccc2ccccc2c1Br	inactive
Cc1ccc(F)c(S(=O)(=O)NC(=O)C2(C)CCN2C(=O)c2ccc(C(F)(F)F)nc2C)c1 (centres undefined)	inconclusive [rising, partial curve, poor fit]
Cc1cc(NC2CCCCC2)nc(-c2ccccc2O)n1	inactive
CCc1ccc(OCc2ccc(C(=O)NCc3ccccn3)o2)cc1	inactive
NC(=O)c1ccc[n+]([C@H]2O[C@@H](COP(=O)([O-])OP(=O)(O)OC[C@H]3O[C@@H](n4cnc5c(N)ncnc54)[C@H](O)[C@@H]3O)[C@H](O)[C@@H]2O)c1	inconclusive [cytotoxic, single point]
C[C@@]12C(=O)NCC(=O)N1[C@@H]1c3cc(Br)ccc3OC[C@@H]1[C@@H]2c1ccccc1	inactive
COc1ccc(C(C(=O)NC2CCCCC2)N(C(=O)c2sc(C)nc2C)c2ccccc2C)cc1 (centres undefined)	inconclusive [cytotoxic, single point]
C[C@H](CO)N1C[C@H](C)[C@@H](CN(C)Cc2ccc(Oc3ccccc3)cc2)Oc2c(NC(=O)C3CC3)cccc2C1=O	inconclusive [cytotoxic, single point]
C/C(=N\NC(=O)c1nnn(-c2nonc2N)c1-c1ccc(Cl)c(Cl)c1)c1ccncc1	inconclusive [cytotoxic, single point]
Cc1csc(NC(=O)C(C)Oc2ccc(Cl)cc2C)n1 (centres undefined)	inactive
